The record followed here is ChEMBL document CHEMBL4888484, “Replenishing the malaria drug discovery pipeline: Screening and hit evaluation of the MMV Hit Generation Library 1 (HGL1) against asexual blood stage Plasmodium falciparum ,using a nano luciferase reporter read-out” (2022).

“And” between values parts separate entries of the source, which are not always exact repeats. Equal entries are not always repeated. In all, about 150,000 compounds went through this assay and about 540 (0.36%) showed an effect of 50% or more. The list shows a part of the results.

The test system of the assay is Plasmodium falciparum. The assay is described as follows: Primary screen in NF54 nanoGlo assay, in single point, at 2uM, 72h; a lower Z score goes with more inhibition. The class given is functional, Erythrocyte. The note with it: timepoint 72 hour.

In general, % Inhibition refers to the drop in the measured response relative to a control, in per cent. As to `COc1ccc(Cc2nn(-c3ccccc3)c(N)c2-c2ccc(OC)c(OC)c2)cc1OC`, the “% Inhibition” value came out at 5% and the Z score was -1.04.
The like results for `COc1ccc(-c2cn([C@H]3CCN(C)C[C@H]3Cc3ccccc3)nn2)cn1` were, in that order, 11% and -1.45.
The like results for `COc1ccc(Cl)cc1C(C)NCC1CC(C)=NO1` (stereo not given) were, in that order, -3% and 0.56.
The like results for `O=C(Nc1ccc(Br)cc1)c1nc(-c2cn(-c3ccccc3)nn2)no1` were, in that order, -12% and 2.43.
With `O=c1c2ccccc2c(-c2nc(-c3ccc4c(c3)OCO4)no2)nn1-c1ccccc1`, the “% Inhibition” value is 4% and the Z score is reported as -0.45.
The like results for `C[C@H](NS(=O)(=O)c1ccccc1C(F)(F)F)C(=O)NCc1ccccc1CN1CCOCC1` were, in that order, 1% and -0.06.
The like results for `NC(=O)c1ccc(NCc2csc(-c3ccccn3)n2)cc1F` were, in that order, -13% and 2.52.
The like results for `CN(CCNC(=O)C1CC=CC1)C(=O)C1CC=CC1` were, in that order, -5% and 0.93.
Take `Cc1cccc(C)c1NCC(=O)N1CCCN(C(=O)C(C)(C)C)CC1`: the “% Inhibition” value is listed as 3% and the Z score is given as -0.3.
For the molecule `NC(=O)Nc1cccc(NC(=O)CC2=CCCCC2)c1`, the “% Inhibition” value was -9% and the Z score is recorded as 1.87.
For the molecule `CCc1cc(N2CCC(C(=O)O)(n3cnc4ccccc43)CC2)ncn1`, the “% Inhibition” value is listed as -6% and the Z score was 1.08.
On to `O=C([C@H]1CCc2cn[nH]c2C1)N1CCn2c(cc3ccc(Cl)cc32)C1`, for which the “% Inhibition” value was -12% and the Z score is 2.03.
The like results for `CCn1cc(CNC(=O)CCn2nc(C(F)(F)F)c(Cl)c2C)c(C)n1` were, in that order, -11% and 1.46.
As to `O=C(CC1CC2CCC1C2)Nc1cccc(S(=O)(=O)N2CCCC2)c1` (stereo not given), the “% Inhibition” value is listed as -5% and the Z score is 0.61.
The like results for `COc1ccccc1CNC(=O)C1=Nc2ccccc2S(=O)(=O)N1` were, in that order, -6% and 0.67.
Regarding `Cc1ccc(CN2CC(=O)N3C(c4ccc(C)cc4)c4[nH]c5ccccc5c4C[C@H]3C2=O)cc1` (stereo not given in full), the “% Inhibition” value was -3% and the Z score is 0.37.
The like results for `NC(=O)c1cc(S(N)(=O)=O)cs1` were, in that order, -6% and 0.71.
The like results for `COc1cccc(C2C(NC(=O)c3cc[nH]n3)CCN2C2CC2)c1` (stereo not given) were, in that order, -11% and 2.06.
The like results for `NC1CC2CC(C(=O)Nc3cnc4c(F)cccc4c3)CC12` (stereo not given) were, in that order, -6% and 1.15.
Regarding `Cc1cc(F)ccc1CS(=O)(=O)N[C@@H](C)c1ccc(Cl)cn1`, the “% Inhibition” value is on record as -8% and the Z score worked out at 0.98.
The like results for `O=C(Nc1ccc(-c2ccn[nH]2)cc1)[C@H]1CCCN(Cc2cc(F)ccc2F)C1` were, in that order, -1% and 0.08.
Take `CCN1CCN(C[C@@H]2CN(c3cc(C(C)C)nc(C)n3)C[C@@H]2CO)CC1`: the “% Inhibition” value was 9% and the Z score is -1.63.
The like results for `CC(C)c1cc(-c2nc([C@H]3CCOC3)n[nH]2)nc(N)n1` were, in that order, -9% and 0.97.
The like results for `CCc1ccc(C(=O)NC(C2CC2)C2CC2)o1` were, in that order, -7% and 0.92.
Regarding `O=C(c1ccc(Cl)cn1)N1CCC[C@H](c2nnn[nH]2)C1`, the “% Inhibition” value was -9% and the Z score was 0.89.
The like results for `CCOc1ccc(CNC(=O)[C@H]2CCOC2)cc1Cl` were, in that order, -6% and 0.56.
The like results for `COc1ccccc1N1CCN(C(=O)C2CC(=O)N(C3CCS(=O)(=O)C3)C2)CC1` (stereo not given) were, in that order, 8% and -1.14.
The like results for `Cc1csc(NC(=O)Cn2cnc(C(C)C)cc2=O)n1` were, in that order, 0% and -0.02.
Consider `COC(=O)c1cccc(-c2noc(C3(C#N)CCCC3)n2)c1`, for which the “% Inhibition” value stood at 5% and the Z score is -0.49.
The like results for `CCCCOc1ccc([C@@H]2CC(=O)Nc3cc(N4CCNC4=O)ccc32)cc1` were, in that order, -9% and 1.56.
The like results for `CN1CCC(Oc2ncc(Br)cn2)CC1` were, in that order, 0% and 0.
For the molecule `O=C(Nc1cnc2ccccc2c1)N1CCOCC1`, the “% Inhibition” value turned out to be 8% and the Z score is recorded as -1.48.
The like results for `CCc1nn(C)c(Cl)c1CN1CC(c2ccccn2)C1` were, in that order, -12% and 1.25.
The like results for `Cc1cccc(CN2CCC(N3CCC[C@H](C(=O)NCc4ccccn4)C3)CC2)c1` were, in that order, -16% and 2.48.
The like results for `O=c1[nH][nH]c(=O)n1-c1ccc2c(c1)OCO2` were, in that order, -14% and 2.09.
Regarding `CC(=O)Nc1ccc(CN2CCC[C@H](n3cc(C)cn3)C2)cc1`, the “% Inhibition” value is reported as -7% and the Z score stood at 0.79.
The like results for `CC(C)C(=O)NCCNc1nc(C2CCCCC2)nc2c1cnn2-c1ccccc1Cl` were, in that order, -13% and 1.33.
The like results for `O=C(Nc1ccn(-c2ncccc2Cl)n1)c1ccc(Cl)cc1Cl` were, in that order, -11% and 1.11.
The like results for `CC(C)(C)c1nnc(C(=O)NC2C3CN(Cc4ccccc4)CC32)o1` (stereo not given) were, in that order, 7% and -0.92.
Turning to `CCC(=O)C1CCCN(C(=O)CC2(c3ccc(OC)cc3)CC(=O)N(C3CC3)C2=O)C1` (stereo not given), the “% Inhibition” value is -12% and the Z score turned out to be 2.03.
For `COc1ccc(CCC(=O)Nc2ccc3nc(C4CC4)[nH]c3c2)cc1`, the “% Inhibition” value (2 µM) is -15% and 5%.
With `COc1ccccc1-n1nc(CC(N)=O)nc1COC(C)C`, the “% Inhibition” value is on record as -9% and the Z score worked out at 0.87.
In the case of `Cc1cc(C)n(-c2ccc(-c3nc(CN4CCOCC4)no3)cc2)n1`, the “% Inhibition” value is 3% and the Z score is reported as -0.63.
